# Data: the supplement of paper PMC8728848
# This is one part of the list.
# B1: PNGase F (Flavobacterium meningosepticum) (protein)
# chain: GIPAPADNTVNIKTFDKVKNAFGDGLSQSAEGTFTFPADVTAVKTIKMFIKNECPNKTCDEWDRYANVYVKNKTTGEWYEIGRFITPYWVGTEKLPRGLEIDVTDFKSLLSGNTELKIYTETWLAKGREYSVDFDIVYGTPDYKYSAVVPVVQYNKSSIDGVPYGKAHTLALKKNIQLPTNTEKAYLRTTISGWGHAKPYDAGSRGCAEWCFRTHTIAINNSNTFQHQLGALGCSANPINNQSPGNWTPDRAGWCPGMAVPTRIDVLNNSLIGSTFSYEYKFQNWTNNGTNGDAFYAISSFVIAKSNTPISAPVVTNLDPHHHHHH
# What was measured:
# Assay in all cases: glycan array binding signal (z-score within array); higher = stronger binding
# Settings in all cases: glycan notation: IUPAC condensed, linker removed
# [1] = molecular target: Neu5Ac(a2-3)Gal(b1-4)GlcNAc(b1-2)[Neu5Ac(a2-3)Gal(b1-4)GlcNAc(b1-4)]Man(a1-3)[GlcNAc(b1-4)][Neu5Ac(a2-3)Gal(b1-4)GlcNAc(b1-2)[Neu5Ac(a2-3)Gal(b1-4)GlcNAc(b1-6)]Man(a1-6)]Man(b1-4)GlcNAc(b1-4)GlcNAc
# Method in brief: (§1)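 The binding signal is a Z-score computed within each array. Data were drawn from 3228 arrays in the Consortium for Functional Glycomics database, restricted to those with a known protein sequence. Scores were averaged over arrays of the same protein sequence at different concentrations or buffers, and over linkers, and negative values can be taken as non-binding.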
# [2] = molecular target: Neu5Ac(a2-3)Gal(b1-4)GlcNAc(b1-2)[Neu5Ac(a2-3)Gal(b1-4)GlcNAc(b1-4)]Man(a1-3)[GlcNAc(b1-4)][Neu5Ac(a2-3)Gal(b1-4)GlcNAc(b1-4)Man(a1-6)]Man(b1-4)GlcNAc(b1-4)GlcNAc
# Method in brief: as §1
# [3] = molecular target: Neu5Ac(a2-3)Gal(b1-4)GlcNAc(b1-2)[Neu5Ac(a2-3)Gal(b1-4)GlcNAc(b1-6)]Man(a1-6)[Neu5Ac(a2-3)Gal(b1-4)GlcNAc(b1-2)Man(a1-3)][GlcNAc(b1-4)]Man(b1-4)GlcNAc(b1-4)GlcNAc
# Method in brief: as §1
# [4] = molecular target: Neu5Ac(a2-3)Gal(b1-4)GlcNAc(b1-3)Gal
# Method in brief: as §1
# [5] = molecular target: Neu5Ac(a2-3)Gal(b1-4)GlcNAc(b1-3)Gal(b1-3)GlcNAc
# Method in brief: as §1
# [6] = molecular target: Neu5Ac(a2-3)Gal(b1-4)GlcNAc(b1-3)Gal(b1-4)GlcNAc
# Method in brief: as §1
# [7] = molecular target: Neu5Ac(a2-3)Gal(b1-4)GlcNAc(b1-3)Gal(b1-4)GlcNAc(b1-2)Man(a1-3)[Neu5Ac(a2-3)Gal(b1-4)GlcNAc(b1-3)Gal(b1-4)GlcNAc(b1-2)Man(a1-6)]Man(b1-4)GlcNAc(b1-4)GlcNAc
# Method in brief: as §1
# [8] = molecular target: Neu5Ac(a2-3)Gal(b1-4)GlcNAc(b1-3)Gal(b1-4)GlcNAc(b1-3)Gal(b1-4)GlcNAc
# Method in brief: as §1
# [9] = molecular target: Neu5Ac(a2-3)Gal(b1-4)GlcNAc(b1-3)Gal(b1-4)GlcNAc(b1-3)Gal(b1-4)GlcNAc(b1-2)Man(a1-3)[Neu5Ac(a2-3)Gal(b1-4)GlcNAc(b1-3)Gal(b1-4)GlcNAc(b1-3)Gal(b1-4)GlcNAc(b1-2)Man(a1-6)]GalNAc
# Method in brief: as §1
# [10] = molecular target: Neu5Ac(a2-3)Gal(b1-4)GlcNAc(b1-3)Gal(b1-4)GlcNAc(b1-3)GalNAc
# Method in brief: as §1
# [11] = molecular target: Neu5Ac(a2-3)Gal(b1-4)GlcNAc(b1-3)Gal(b1-4)GlcNAc(b1-3)[Neu5Ac(a2-3)Gal(b1-4)GlcNAc(b1-3)Gal(b1-4)GlcNAc(b1-6)]GalNAc
# Method in brief: as §1
# [12] = molecular target: Neu5Ac(a2-3)Gal(b1-4)GlcNAc(b1-3)Gal(b1-4)GlcNAc(b1-6)[Gal(b1-3)]GalNAc
# Method in brief: as §1
# [13] = molecular target: Neu5Ac(a2-3)Gal(b1-4)GlcNAc(b1-3)Gal(b1-4)[Fuc(a1-3)]GlcNAc
# Method in brief: as §1
# [14] = molecular target: Neu5Ac(a2-3)Gal(b1-4)GlcNAc(b1-3)GalNAc
# Method in brief: as §1
# [15] = molecular target: Neu5Ac(a2-3)Gal(b1-4)GlcNAc(b1-3)[Neu5Ac(a2-3)Gal(b1-4)GlcNAc(b1-6)]GalNAc
# Method in brief: as §1
# [16] = molecular target: Neu5Ac(a2-3)Gal(b1-4)GlcNAc(b1-6)GalNAc
# Method in brief: as §1
# [17] = molecular target: Neu5Ac(a2-3)Gal(b1-4)GlcNAc(b1-6)[Gal(b1-3)]GalNAc
# Method in brief: as §1
# [18] = molecular target: Neu5Ac(a2-3)Gal(b1-4)GlcNAc(b1-6)[Neu5Ac(a2-3)Gal(b1-3)]GalNAc
# Method in brief: as §1
# [19] = molecular target: Neu5Ac(a2-3)Gal(b1-4)GlcNAc6S
# Method in brief: as §1
# [20] = molecular target: Neu5Ac(a2-3)Gal(b1-4)[Fuc(a1-3)]GlcNAc
# Method in brief: as §1
# [21] = molecular target: Neu5Ac(a2-3)Gal(b1-4)[Fuc(a1-3)]GlcNAc(b1-2)Man
# Method in brief: as §1
# [22] = molecular target: Neu5Ac(a2-3)Gal(b1-4)[Fuc(a1-3)]GlcNAc(b1-3)Gal
# Method in brief: as §1
# [23] = molecular target: Neu5Ac(a2-3)Gal(b1-4)[Fuc(a1-3)]GlcNAc(b1-3)Gal(b1-4)GlcNAc
# Method in brief: as §1
# [24] = molecular target: Neu5Ac(a2-3)Gal(b1-4)[Fuc(a1-3)]GlcNAc(b1-3)Gal(b1-4)[Fuc(a1-3)]GlcNAc(b1-3)Gal(b1-4)[Fuc(a1-3)]GlcNAc
# Method in brief: as §1
# [25] = molecular target: Neu5Ac(a2-3)Gal(b1-4)[Fuc(a1-3)]GlcNAc(b1-3)GalNAc
# Method in brief: as §1
# [26] = molecular target: Neu5Ac(a2-3)Gal(b1-4)[Fuc(a1-3)]GlcNAc(b1-6)[Gal(b1-3)]GalNAc
# Method in brief: as §1
# [27] = molecular target: Neu5Ac(a2-3)Gal(b1-4)[Fuc(a1-3)]GlcNAc(b1-6)[Neu5Ac(a2-3)Gal(b1-3)]GalNAc
# Method in brief: as §1
# [28] = molecular target: Neu5Ac(a2-3)Gal(b1-4)[Fuc(a1-3)]GlcNAc6S
# Method in brief: as §1
# [29] = molecular target: Neu5Ac(a2-3)Gal6S(b1-4)GlcNAc
# Method in brief: as §1
# [30] = molecular target: Neu5Ac(a2-3)Gal6S(b1-4)[Fuc(a1-3)]GlcNAc
# Method in brief: as §1
# Neu5Ac(a2-3)GalNAc = molecular target: Neu5Ac(a2-3)GalNAc
# Method in brief: as §1
# [31] = molecular target: Neu5Ac(a2-3)GalNAc(b1-4)GlcNAc
# Method in brief: as §1
# [32] = molecular target: Neu5Ac(a2-3)[GalNAc(b1-4)]Gal(b1-4)Glc
# Method in brief: as §1
# [33] = molecular target: Neu5Ac(a2-3)[GalNAc(b1-4)]Gal(b1-4)GlcNAc
# Method in brief: as §1
# [34] = molecular target: Neu5Ac(a2-3)[GalNAc(b1-4)]Gal(b1-4)GlcNAc(b1-3)GalNAc
# Method in brief: as §1
# [35] = molecular target: Neu5Ac(a2-3)[Neu5Ac(a2-6)]GalNAc
# Method in brief: as §1
# Neu5Ac(a2-6)Gal = molecular target: Neu5Ac(a2-6)Gal
# Method in brief: as §1
# [36] = molecular target: Neu5Ac(a2-6)Gal(b1-3)GlcNAc(b1-3)[Gal(b1-4)GlcNAc(b1-6)]Gal(b1-4)Glc
# Method in brief: as §1
# Neu5Ac(a2-6)Gal(b1-4)Glc = molecular target: Neu5Ac(a2-6)Gal(b1-4)Glc
# Method in brief: as §1
# [37] = molecular target: Neu5Ac(a2-6)Gal(b1-4)GlcNAc
# Method in brief: as §1
# [38] = molecular target: Neu5Ac(a2-6)Gal(b1-4)GlcNAc(b1-2)Man
# Method in brief: as §1
# [39] = molecular target: Neu5Ac(a2-6)Gal(b1-4)GlcNAc(b1-2)Man(a1-3)Man(b1-4)GlcNAc(b1-4)GlcNAc
# Method in brief: as §1
# [40] = molecular target: Neu5Ac(a2-6)Gal(b1-4)GlcNAc(b1-2)Man(a1-3)[Gal(b1-4)GlcNAc(b1-2)Man(a1-6)]Man(b1-4)GlcNAc(b1-4)GlcNAc
# Method in brief: as §1
# [41] = molecular target: Neu5Ac(a2-6)Gal(b1-4)GlcNAc(b1-2)Man(a1-3)[GlcNAc(b1-4)][Neu5Ac(a2-6)Gal(b1-4)GlcNAc(b1-2)Man(a1-6)]Man(b1-4)GlcNAc(b1-4)GlcNAc
# Method in brief: as §1
# [42] = molecular target: Neu5Ac(a2-6)Gal(b1-4)GlcNAc(b1-2)Man(a1-3)[Man(a1-6)]Man(b1-4)GlcNAc(b1-4)GlcNAc
# Method in brief: as §1
binder,measurement,setting,value
B1,glycan array binding signal (z-score),[1],-0.348
same,glycan array binding signal (z-score),[2],-0.969
same,glycan array binding signal (z-score),[3],-0.346
same,glycan array binding signal (z-score),[4],-0.384
same,glycan array binding signal (z-score),[5],-0.394
same,glycan array binding signal (z-score),[6],-0.398
same,glycan array binding signal (z-score),[7],-0.06
same,glycan array binding signal (z-score),[8],-0.395
same,glycan array binding signal (z-score),[9],-0.01
same,glycan array binding signal (z-score),[10],-0.352
same,glycan array binding signal (z-score),[11],-0.043
same,glycan array binding signal (z-score),[12],-0.313
same,glycan array binding signal (z-score),[13],-0.37
same,glycan array binding signal (z-score),[14],-0.277
same,glycan array binding signal (z-score),[15],-0.225
same,glycan array binding signal (z-score),[16],-0.311
same,glycan array binding signal (z-score),[17],0.7
same,glycan array binding signal (z-score),[18],-0.321
same,glycan array binding signal (z-score),[19],-0.316
same,glycan array binding signal (z-score),[20],-0.377
same,glycan array binding signal (z-score),[21],0.002
same,glycan array binding signal (z-score),[22],-0.349
same,glycan array binding signal (z-score),[23],-0.267
same,glycan array binding signal (z-score),[24],-0.211
same,glycan array binding signal (z-score),[25],-0.141
same,glycan array binding signal (z-score),[26],-0.392
same,glycan array binding signal (z-score),[27],-0.137
same,glycan array binding signal (z-score),[28],-0.314
same,glycan array binding signal (z-score),[29],-0.401
same,glycan array binding signal (z-score),[30],-0.226
same,glycan array binding signal (z-score),Neu5Ac(a2-3)GalNAc,0.256
same,glycan array binding signal (z-score),[31],-0.321
same,glycan array binding signal (z-score),[32],-0.248
same,glycan array binding signal (z-score),[33],-0.368
same,glycan array binding signal (z-score),[34],-0.259
same,glycan array binding signal (z-score),[35],0.36
same,glycan array binding signal (z-score),Neu5Ac(a2-6)Gal,-0.129
same,glycan array binding signal (z-score),[36],-0.461
same,glycan array binding signal (z-score),Neu5Ac(a2-6)Gal(b1-4)Glc,-0.215
same,glycan array binding signal (z-score),[37],-0.348
same,glycan array binding signal (z-score),[38],0.37
same,glycan array binding signal (z-score),[39],-0.304
same,glycan array binding signal (z-score),[40],0.184
same,glycan array binding signal (z-score),[41],-0.328
same,glycan array binding signal (z-score),[42],-0.309
